Data reported in the RNAGym collection of RNA variant scans (doi:10.7554/elife.90254).
The source gives no read counts; variants with many changes may rest on few reads.

B1: LINE1-full (parent)
chain: UACGUAGGUGGUUUUCCCCUGAUAGUGCUAAGGGGGCCUGGAAGUUUGGACUGGGCAGAGCUCAACACAGCGUGGCAAAGUGGCUGUGGCUAGACUGCCUCUCUGGAUUCCUCGUCACUCAGCAGGGCAUCUCUGAGAGAAAUGCC

Variants of: B1
Experiment: self-cleavage, relative activity (ratio to wild type); higher = more cleavage; in vitro, sequencing; the parent is a self-cleaving ribozyme
Work on A22G G27A G70A U115A yielded a self-cleavage of 0.07. A22G G32A G97A showed a self-cleavage of 0. In the case of A22G G33A U112A, the self-cleavage is reported as 1.31. Work on A22G G33U U45C A57G U115C yielded a self-cleavage of 0. Work on A22G G34U G55A yielded a self-cleavage of 0.65. Work on A22G G35A A57G U85A U115C A136U A141U yielded a self-cleavage of 0. Work on A22G G35A G75C yielded a self-cleavage of 0.47. A22G G35A U45C A142G showed a self-cleavage of 0.65. In the case of A22G G35C U52C, the self-cleavage is reported as 0.97. In the case of A22G G35C U134C, the self-cleavage is reported as 2.06. A22G G40A A79U U104A A129G gave a self-cleavage of 0.76. Work on A22G G40A U46C A140U yielded a self-cleavage of 1.56. Variant A22G G41A A50U A57U has a self-cleavage of 0.25. With A22G G48U G114A the self-cleavage was 0.57. For A22G G49A C63U A92U A121G, the self-cleavage was 0.29. A22G G49A C68U A78G gave a self-cleavage of 0.06. For A22G G49C A78G U85A U102C, the self-cleavage was 0. With A22G G49U U130G the self-cleavage was 0.95. For A22G G58A A142G, the self-cleavage was 0.03. With A22G G58U A92G A138G the self-cleavage was 0. Work on A22G G60A A65G yielded a self-cleavage of 0.04. Variant A22G G74A U104C U132C has a self-cleavage of 1.44. Variant A22G G106A U134A A136C has a self-cleavage of 0.8. For A22G G114U C128A U130C, the self-cleavage was 1.12. Variant A22G U26A A57G A92U U119C A121U A129G has a self-cleavage of 0. A22G U26A A69G showed a self-cleavage of 0.56. Variant A22G U26C A69U has a self-cleavage of 0. For A22G U26C G27A, the self-cleavage was 0.38. For A22G U26C U39A U45A G114U, the self-cleavage was 1.05. A22G U26C U47C A50U gave a self-cleavage of 0.92. With A22G U26C U104G U143A the self-cleavage was 0.98. With A22G U29C A65C G106U A142G the self-cleavage was 0.07. In the case of A22G U29C U115A A142G, the self-cleavage is reported as 1.1. With A22G U29G G88A the self-cleavage was 0.12. Variant A22G U39A A79G has a self-cleavage of 1.46. For A22G U39A A79U U143C, the self-cleavage was 1.1. Work on A22G U39A C90U yielded a self-cleavage of 0.04. With A22G U39A U45A G49A U96C the self-cleavage was 0.08. A22G U39C A43G A59G A79U gave a self-cleavage of 0. Work on A22G U39C A78G U100C yielded a self-cleavage of 0.84. A22G U39C U46C gave a self-cleavage of 0.69. For A22G U45A U115C A142G, the self-cleavage was 1.94. A22G U45C A50G gave a self-cleavage of 2.45. In the case of A22G U45C U62C, the self-cleavage is reported as 0. With A22G U45C U85G C98A the self-cleavage was 0.08. Variant A22G U45G G82A has a self-cleavage of 0.89. For A22G U46A C145U C146A, the self-cleavage was 1.28. In the case of A22G U46C A59G A65G C128G, the self-cleavage is reported as 0. A22G U46C C71U C99U A140U C146A gave a self-cleavage of 0.65. Variant A22G U47A A79G U115A has a self-cleavage of 1.33. A22G U47A A117G gave a self-cleavage of 0.82. Work on A22G U47A U108C A121U yielded a self-cleavage of 1.53. Variant A22G U47A U134A has a self-cleavage of 0.37. Work on A22G U47C A64G A141U yielded a self-cleavage of 0. A22G U47C A136G U143C showed a self-cleavage of 1.58. Work on A22G U52A A77U yielded a self-cleavage of 1.41. Work on A22G U52C A77G G83A U134C yielded a self-cleavage of 1.49. With A22G U52C A92C the self-cleavage was 0. A22G U52G U102A gave a self-cleavage of 0.97. In the case of A22G U62A A77G U85A G139A, the self-cleavage is reported as 0.06. Work on A22G U62C A94U U96C yielded a self-cleavage of 0.09. In the case of A22G U62C A107G, the self-cleavage is reported as 0. Work on A22G U62C A124U A136G yielded a self-cleavage of 0.3. A22G U62C U100C A124G showed a self-cleavage of 0. Work on A22G U62C U108C yielded a self-cleavage of 0.1. A22G U62G A65C A77U U132A A140G showed a self-cleavage of 0. A22G U73A U96A U112C A124G U134A showed a self-cleavage of 0.24. Work on A22G U73A U119A yielded a self-cleavage of 1.43. A22G U73C A136G A142G gave a self-cleavage of 0.48. With A22G U81A A142G the self-cleavage was 2.27. With A22G U81A U112C the self-cleavage was 2.01. Variant A22G U81C A107G A141G has a self-cleavage of 1.84. A22G U96A A129U showed a self-cleavage of 0.53. Variant A22G U96C U134C has a self-cleavage of 0.13. Work on A22G U96G A138G C146U yielded a self-cleavage of 0. A22G U100A G125A showed a self-cleavage of 0.32. With A22G U109C C113A the self-cleavage was 1.37. For A22G U112A G127A, the self-cleavage was 1.71. Variant A22G U112C A138U has a self-cleavage of 1.21. In the case of A22G U112C U115A A138G, the self-cleavage is reported as 1.22. A22G U115A U134G showed a self-cleavage of 1.29. A22G U119A A121G A138G gave a self-cleavage of 1.89. In the case of A22G U119C U132C, the self-cleavage is reported as 2.11. Variant A22G U130C A140G has a self-cleavage of 1.41. For A22G U143G C146U, the self-cleavage was 1.33. A22U A24G A59C A77U U85A A117U G125A gave a self-cleavage of 0.19. Work on A22U A24G A142G yielded a self-cleavage of 1.45. In the case of A22U A24U G58A A64G C101A, the self-cleavage is reported as 0.03. In the case of A22U A30C U52C A57G U87C A138U, the self-cleavage is reported as 0. A22U A30G U87A U100C gave a self-cleavage of 0.3. Work on A22U A30U A57U C61A U143C yielded a self-cleavage of 0.1. Work on A22U A42U U73C A138G yielded a self-cleavage of 0.87. Work on A22U A50G A142G U143G yielded a self-cleavage of 0.64. With A22U A50G U112C G126A G144A the self-cleavage was 1. For A22U A59G G72A G122C, the self-cleavage was 0.08. A22U A64U A65G C113A showed a self-cleavage of 0.09. In the case of A22U A65C U100C, the self-cleavage is reported as 0.03. In the case of A22U A67G U112A C118U, the self-cleavage is reported as 0.39. Work on A22U A67U U81A G114A yielded a self-cleavage of 0.06. A22U A77G A138G gave a self-cleavage of 1.57. In the case of A22U A77U G125U A129U, the self-cleavage is reported as 0.8. With A22U A78G A94G the self-cleavage was 0. Work on A22U A94G C145U yielded a self-cleavage of 0.18. Variant A22U A94G U102A has a self-cleavage of 0. Work on A22U A117U A124C yielded a self-cleavage of 1.43. In the case of A22U A141G A142G, the self-cleavage is reported as 1.87. With A22U C38A A67G the self-cleavage was 0.41. With A22U G34A A50U U96G the self-cleavage was 0.24. In the case of A22U G34A A69U U104C, the self-cleavage is reported as 0.11. For A22U G49A C145U, the self-cleavage was 0.87. A22U G60A U62A G114A U130C gave a self-cleavage of 0.03. For A22U G86A U102C U132A, the self-cleavage was 0.15. Variant A22U U23C U96C A107G has a self-cleavage of 0.15. With A22U U39C U102A A136G the self-cleavage was 1.66. For A22U U45A A57G G60A U115A A138U A140C A142G, the self-cleavage was 0. For A22U U45A A140G, the self-cleavage was 0.57. Variant A22U U45C U96C has a self-cleavage of 0.1. Variant A22U U47C A57G C128U has a self-cleavage of 0.73. Work on A22U U47C A57U G105U yielded a self-cleavage of 0.18. In the case of A22U U47G U62C, the self-cleavage is reported as 0.05. In the case of A22U U52C U100A, the self-cleavage is reported as 0.4. With A22U U73A U100C A124G the self-cleavage was 2.56. With A22U U85A A142G the self-cleavage was 0.07. For A22U U87A A140U, the self-cleavage was 0.07. Variant A22U U87A U102C has a self-cleavage of 0.1. A22U U91C C101U showed a self-cleavage of 0.24. A22U U96A A129U gave a self-cleavage of 0. Work on U23A A24G U45C A107G yielded a self-cleavage of 1.67. Work on U23A A24U U73A A78G yielded a self-cleavage of 0.19. In the case of U23A A59G U109C A138G, the self-cleavage is reported as 0.11. U23A A64G A129G gave a self-cleavage of 0.13. U23A A65G G80A U112C gave a self-cleavage of 0.22. Work on U23A A67G A141G yielded a self-cleavage of 0.74. U23A A69G A141G showed a self-cleavage of 0. For U23A A79G A142G, the self-cleavage was 1.28. U23A A92G U115A showed a self-cleavage of 0.14. For U23A A94G A142G, the self-cleavage was 1.17. U23A A121U U130C A140G showed a self-cleavage of 2.3. With U23A A124U A142G the self-cleavage was 1.36. In the case of U23A C63U A64U A65G U143A, the self-cleavage is reported as 0.04. With U23A G33A U47C U87C the self-cleavage was 0.35. U23A G34A A79U A141G showed a self-cleavage of 1.65. With U23A G35A U73A the self-cleavage was 1.02. For U23A G58A A142C, the self-cleavage was 0.07. For U23A G75U C99A U109A U112A, the self-cleavage was 0.05. Work on U23A G82A A117U yielded a self-cleavage of 1.92. With U23A G114A A121U the self-cleavage was 1.56. With U23A U26A A129G A142G the self-cleavage was 1.7. In the case of U23A U46C U91A A141G, the self-cleavage is reported as 0.77. U23A U47A U102C U134C showed a self-cleavage of 1.02. With U23A U47G A65G U132C the self-cleavage was 0.17. Work on U23A U52C A79G A141G yielded a self-cleavage of 1.47. For U23A U62A U109A, the self-cleavage was 0.12. Variant U23A U62C A64G U100C has a self-cleavage of 0.22. With U23A U62C U143C the self-cleavage was 0. With U23A U85C U87A A117G the self-cleavage was 0.14. Work on U23A U102C A121U A138U yielded a self-cleavage of 1.3. With U23A U102C A129G A136C the self-cleavage was 1.53. For U23A U112A A142G, the self-cleavage was 1.04. For U23C A24G A65C, the self-cleavage was 0. Variant U23C A24G A138G has a self-cleavage of 1.43. With U23C A24G G75A A136U the self-cleavage was 0.59. Work on U23C A24G U132A U143C yielded a self-cleavage of 0. U23C A30C U45C A142G showed a self-cleavage of 1.53. Work on U23C A30G U46A A117C U119A yielded a self-cleavage of 2.01. Work on U23C A30G U87C A138G yielded a self-cleavage of 0. Work on U23C A30U C95U A107G C128U yielded a self-cleavage of 0.25.
